Measurements taken from PubChem BioAssay AID463173 (ICCB-Longwood Screening Facility, Harvard Medical School, 2010).
Out of some 52,000 compounds screened, about 1,700 (3.3%) were called active. Cut-off read from the data, not from the text of the source: active = survival mostly below about 52% (no sharp cut-off); inactive = mostly above about 56%. The list shows a part of the results.

system: Wild type; test: growth inhibition of S. aureus wild type versus tarO mutant, primary screen, teichoic acid synthesis inhibitors, RN4220, OD600 (AID 463173); settings: S. aureus RN4220 wild type/DeltatarO growth, OD600, 18 h, stronger effect = lower value, screened at 18.75 µg/mL (by protocol)

| SMILES | survival |
| --- | --- |
| CCn1cc2nc(SCc3cccc(Cl)c3)n(Cc3ccc(C)cc3)c(=O)c2n1 | inactive: 53% |
| Cc1ccc(Cl)cc1Nc1nn2c(=O)c3ccc(C(=O)N4CCCC(C)C4)cc3nc2s1 (stereo not drawn) | inactive: 69% |
| CC(C)c1cnc2c(c1SCC(=O)Nc1cccc(F)c1)c(=O)n(C)c(=O)n2C | inactive: 71% |
| O=C(c1cc2ccccc2oc1=O)N(Cc1ccc(F)cc1)Cc1ccco1 | inactive: 105% |
| COc1ccc(CCNS(=O)(=O)c2cc(-c3cc(C)no3)ccc2C)cc1OC | inactive: 69% |
| O=C(Nc1cccc(F)c1)C1CCN(S(=O)(=O)c2cccc3nsnc23)CC1 | inactive: 82% |
| Cc1cc(C)cc(OC(C)C(=O)Nc2c(C(=O)c3ccccc3)oc3ccccc23)c1 (stereo not drawn) | active: -1% |
| c1ccc(CSc2nc3ncccc3[nH]2)cc1 | inactive: 66% |
| O=C(Nc1cccc(C(F)(F)F)c1)C1CCCN1S(=O)(=O)c1cccc2nsnc12 (stereo not drawn) | inactive: 76% |
| Cc1ccc(CCNC(=O)c2ccc3c(c2)N(Cc2cccc(Cl)c2)C(=O)c2ccccc2S3(=O)=O)cc1 | inactive: 79% |
| CSc1ccc(C2c3c(oc4cc(C)cc(C)c4c3=O)C(=O)N2Cc2ccco2)cc1 (stereo not drawn) | inactive: 81% |
| CCCN(CCC)S(=O)(=O)c1ccc(C(=O)Nc2sc3c(c2C(=O)OC)CCN(CC)C3)cc1 | inactive: 85% |
| CCc1ccc(-c2csc(Nc3ncccn3)n2)cc1 | inactive: 97% |
| Cc1ccc(S(=O)(=O)N2CCC(C(=O)Nc3ccc(C)c(Cl)c3)CC2)cc1 | inactive: 122% |
| Cc1cn2c(=O)cc(COC(=O)c3cccc(NC(=O)c4ccccc4C)c3)nc2s1 | inactive: 71% |
| COc1ccc(-n2nc(C)c3c(C(F)(F)F)cc(-c4cccnc4)nc32)cc1 | inactive: 86% |
| COc1ccc(C(=O)COC(=O)C(Cc2c[nH]c3ccccc23)NC(=O)c2ccc(C(C)(C)C)cc2)cc1 (stereo not drawn) | inactive: 93% |
| COc1ccc(CCNC(=O)C(=O)NCC(c2cccs2)S(=O)(=O)c2ccc(C)cc2)cc1 (stereo not drawn) | inactive: 97% |
| O=C1c2[nH]nc(-c3ccccc3O)c2C(c2cccc(OCc3ccccc3)c2)N1CCO (stereo not drawn) | inactive: 91% |
| CCOC(=O)c1c(C)[nH]c(C)c1S(=O)(=O)N1CCN(c2cccc(C(F)(F)F)c2)CC1 | inactive: 121% |
| CCN(CC)C(=O)Cn1c(=O)n(-c2ccc(Cl)cc2)c(=O)c2c3c(sc21)CCC3 | inactive: 73% |
| CCOC(=O)c1cc(OC(=O)c2ccccc2C)n(-c2ccccc2)n1 | inactive: 68% |

| SMILES | survival |
| --- | --- |
| COCCCNC(=O)C1CCN(c2nc3ccc(C)cc3[nH]2)CC1 | inactive: 76% |
| COc1cccc(N2CCN(C(=O)CCS(=O)(=O)c3ccc4c(c3)oc(=O)n4C)CC2)c1 | inactive: 69% |
| O=C(COc1cccc(-n2cnnn2)c1)N1CCOCC1 | inactive: 105% |
| COc1cc(OC)cc(-c2cc3nc(C)c(CCC(=O)NCc4ccc(Cl)cc4)c(C)n3n2)c1 | inactive: 147% |
| Cc1cc2oc(=O)cc(C)c2c2occ(-c3ccc(Cl)cc3)c12 | inactive: 81% |
| COc1ccc(C(=O)Nc2ccc(-n3nncc3-c3ccccc3)cc2)cc1OC | inactive: 124% |
| Cc1cccc(N2CCN(C(=O)Cn3ncc4c5ccccc5n(C)c4c3=O)CC2)c1C | inactive: 71% |
| Clc1ccc(C(c2ccccc2)c2c[nH]c3ccccc23)s1 (stereo not drawn) | active: 4% |
| Cc1ccc2[nH]c3c(=O)n(CC(=O)N4CCCCC4)ncc3c2c1 | inactive: 56% |
| COc1ccc(OC)c(CNC(=O)C2CCN(c3nc4ccccc4nc3C(F)(F)F)CC2)c1 | inactive: 124% |
| Cc1ccc(C)n1-c1nnc(N2CCCC(C(=O)NCc3cccc(F)c3)C2)s1 (stereo not drawn) | inactive: 81% |
| Cc1ccc(-n2nc(CO)c(C(=O)NCc3cccnc3)n2)cc1 | inactive: 88% |
| CCc1ccccc1Nc1nc2ccccc2c2nncn12 | inactive: 81% |
| CCc1ccc(S(=O)(=O)c2cn(Cc3ccccc3)c3cc(F)c(F)cc3c2=O)cc1 | inactive: 88% |
| COc1ccccc1NC(=O)CSc1ncc2c(n1)-c1cc(Cl)ccc1N(Cc1ccccc1)S2(=O)=O | inactive: 77% |
| Cc1ccc(OCC(=O)Nc2ccc3nc(SCC(=O)N4CCOCC4)sc3c2)cc1 | inactive: 96% |
| CCCCNC(=O)CCCn1c(=O)c2ccccc2n(Cc2cccc(Cl)c2)c1=O | inactive: 99% |
| Cn1c(CN2CCCCC2)nc2cc(NC(=O)c3ccccc3Cl)ccc21 | inactive: 95% |
| CCCCc1c(C)nc2c(-c3ccc(OC)cc3)c(C)[nH]n2c1=O | active: 12% |
| O=C(NC1CCCC1)c1cc(Nc2cccc(C(F)(F)F)c2)nc2ccccc12 | inactive: 73% |
| CCC(=O)N1CCc2cc(Br)cc(S(=O)(=O)CCC(=O)N3CCN(c4ccccc4F)CC3)c21 | inactive: 64% |
| COc1ccc2nc(NC(=O)c3nc(SC(C)C)ncc3Cl)sc2c1 | inactive: 113% |

| SMILES | survival |
| --- | --- |
| NC(=O)c1nc(Nc2ccccc2)sc1NC(=O)c1ccccc1Br | inactive: 80% |
| O=C(C1CCN(S(=O)(=O)Cc2ccccc2)CC1)N1CCN(c2ccccc2)CC1 | inactive: 83% |
| CCOC(=O)c1cccc(NS(=O)(=O)c2ccc(-c3cnc(C4CC4)o3)cc2)c1 | inactive: 73% |
| CCOC(=O)c1cccc(NC(=O)c2cc3c(-c4cccc(OC)c4)nn(C)c3s2)c1 | inactive: 65% |
| COCCCNC(=O)CSc1nc2c(sc3ccccc32)c(=O)n1CCc1ccccc1 | inactive: 64% |
| COc1cc(NC(=O)CSc2nc3ccccc3nc2Cc2ccc(Cl)cc2)cc(OC)c1 | inactive: 127% |
| Cc1nc2c(c(C)c1CCC(=O)NCc1ccccc1)c(=O)n(C)c(=O)n2C | inactive: 76% |
| Cc1cccc(NC(=O)C2CCC(CNS(=O)(=O)c3csc(C(N)=O)c3)CC2)c1C (stereo not drawn) | inactive: 71% |
| Cc1ccc(S(=O)(=O)c2nc(S(C)(=O)=O)sc2N(C)Cc2ccccc2)cc1 | inactive: 93% |
| N#Cc1c(N)n(-c2cccc(Cl)c2)c2nc3ccccc3nc12 | inactive: 109% |
| COc1cccc(Nc2cc(C)nc3nc(-c4ccc(Cl)cc4)nn23)c1 | inactive: 103% |
| Cc1nn2c(=O)cc(COc3ccc(/C=C(\C#N)C(=O)Nc4ccc(F)cc4)cc3)nc2s1 | inactive: 93% |
| O=C(COc1ccccc1Cl)Nc1nnc(S(=O)(=O)N2CCCCCC2)s1 | inactive: 83% |
| O=C(NCCCc1nc2ccccc2n1Cc1c(F)cccc1Cl)C1CCCCC1 | inactive: 109% |
| CCOC(=O)COc1ccccc1C1C(C(=O)OC)=C(C)NC2=C1C(=O)c1ccccc12 (stereo not drawn) | inactive: 70% |
| Cc1nn(C)c2c1c(-c1ccccc1)cc(=O)n2CC(=O)Nc1ccccc1C(F)(F)F | inactive: 71% |
| C=C(C)Cn1cnc2ccccc21 | inactive: 107% |
| COc1ccc(NCc2cc3cc4c(cc3n(CC(=O)Nc3cc(C)cc(C)c3)c2=O)OCO4)cc1 | inactive: 60% |
| CCOc1ccc(-n2c(=O)c3c(C)c(C)sc3n(CC(=O)N(CC)Cc3ccccc3)c2=O)cc1 | inactive: 85% |
| Cc1ccc(Cl)cc1NC(=O)Cc1ccc(-n2c(C)nc3cccnc32)cc1 | inactive: 135% |
| Cc1cn2c(=O)cc(COc3ccc(Cl)cc3)nc2s1 | inactive: 63% |
| COc1cc(NC(=O)Nc2cccc(-c3noc(C)n3)c2)cc(OC)c1OC | inactive: 121% |

| SMILES | survival |
| --- | --- |
| COc1ccc2c(c1)CC(C(=O)Nc1cc(Cl)ccc1C)CO2 (stereo not drawn) | inactive: 73% |
| CCc1ccc(CNC(=O)C2Cc3cc(S(=O)(=O)N4CCCCCC4)ccc3N2C(C)=O)cc1 (stereo not drawn) | inactive: 72% |
| CCOc1ccc(CNc2nc3nc(C)c(Cc4ccccc4)c(=O)n3[nH]2)cc1 | inactive: 94% |
| O=C(O)C(c1ccccc1)N1CCOCC1 (stereo not drawn) | inactive: 107% |
| COc1cc(C2c3c(oc4ccccc4c3=O)C(=O)N2c2ccccn2)cc(OC)c1OC (stereo not drawn) | inactive: 133% |
| COc1ccc(N(Cc2cccs2)C(=O)c2ccc(OCC(C)C)cc2)cc1 | inactive: 113% |
| CCCc1nn2c(=O)cc(COC(=O)c3ccccc3NC(=O)c3cccs3)nc2s1 | inactive: 65% |
| COc1cccc(C2CC(=O)N(c3ccc(F)cc3)C3=C2C(=O)OC3)c1OC (stereo not drawn) | inactive: 75% |
| Cc1ccc(C)c(C(=O)c2c(N)c(-c3nc(-c4ccc5c(c4)OCO5)cs3)c3ccccn23)c1 | inactive: 76% |
| Cc1cccc(NC(=O)C2CCC(CNS(=O)(=O)c3ccc(Br)s3)CC2)c1 (stereo not drawn) | inactive: 64% |
| COCCNC(=O)c1c[nH]c2ccc(S(=O)(=O)Nc3ccc(F)cc3F)cc2c1=O | inactive: 82% |
| Cn1ccc2c(OCC(=O)NCc3ccccc3)cccc2c1=O | inactive: 73% |
| COc1ccccc1CNS(=O)(=O)c1ccc(-c2cnc(C3CC3)o2)cc1 | inactive: 83% |
| Cc1ccc(N2CC(NC(=O)c3cc4ccccc4o3)CC2=O)cc1C (stereo not drawn) | inactive: 75% |
| O=C(c1cc2ccccc2oc1=O)N(Cc1cccs1)Cc1cccs1 | inactive: 109% |
| CC(C)c1nn2c(=O)cc(COC(=O)c3cccc(NC(=O)c4cccs4)c3)nc2s1 | inactive: 84% |
| CCCOc1ccc(-c2nonc2NC(=O)c2cc(OC)c(OC)c(OC)c2)cc1OCCC | inactive: 120% |
| CCc1ccc(C2=NN(CCC(=O)NCCc3ccc(OC)c(OC)c3)C(=O)CC2)cc1 | inactive: 78% |
| Cc1ccccc1C(=O)Nc1ccc2nc(SCC(=O)N3CCc4ccccc43)sc2c1 | inactive: 106% |
| COc1ccc(CNC(=O)c2ccc3c(c2)N(Cc2ccc(C)cc2)CCS3)cc1 | inactive: 93% |
| CCc1ccccc1NC(=O)Cn1c(=O)n(-c2ccc(CC(=O)NCC3CCCO3)cc2)c(=O)c2ccccc21 (stereo not drawn) | inactive: 97% |
| COc1ccc(CSc2nc3ccncc3n2CC(=O)Nc2ccc(C)c(F)c2)cc1 | inactive: 76% |
